Measurements taken from the supplement of paper PMC9135407.
“And” between values parts separate entries of the source, which are not always exact repeats. Equal values may be shown once. Where a name gives a salt, the structure may show the parent alone. Out of some 5,800 compounds screened, about 620 (11%) showed activity.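 How the source made its calls: active = score above a cut-off or among the top three wells of a plate; in these data no inactive exceeds 0.85.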 The list shows a part of the results, in another mix than the full data.

System: primary human hepatic stellate cells (donor 1)
Assay: scaled lipid accumulation score (0 = DMSO-like, 1 = nortriptyline-like); higher = stronger HSC inactivation (lipid re-accumulation), active = hit call of the paper
Settings: 48 h
[1] = library stock concentration: 3.33 mM
[2] = library stock concentration: 10 mM
[3] = library stock concentration: 80 uM
[4] = library stock concentration: 400 uM
[5] = library stock concentration: 2 mM
[6] = library stock concentration: 1 mM

SMILES: Clc1ccc(C(Cn2ccnc2)OCc2ccc(Sc3ccccc3)cc2)c(Cl)c1 (stereo unspecified) [Fenticonazole Nitrate]
- scaled lipid accumulation score [1]: inactive: 0.017
- scaled lipid accumulation score [2]: inactive: 0.758

SMILES: CC[C@H](C)C(=O)O[C@H]1C[C@@H](C)C=C2C=C[C@H](C)[C@H](CC[C@@H]3C[C@@H](O)CC(=O)O3)[C@H]21 [Lovastatin]
- scaled lipid accumulation score: inactive: 0.438
- scaled lipid accumulation score [1]: inactive: 0.039
- scaled lipid accumulation score (library stock concentration: 4.9 mM): inactive: 0.066 and inactive: ≤ 0

SMILES: Cc1c(C)c2c(c(C)c1O)CCC(C)(C(=O)O)O2 (stereo unspecified) [Trolox]
- scaled lipid accumulation score: inactive: 0.082

SMILES: COc1cccc2cc(-c3nc([C@H]4CC[C@H](C(=O)O)CC4)n4ncnc(N)c34)[nH]c12
- scaled lipid accumulation score [3]: inactive: ≤ 0
- scaled lipid accumulation score [4]: inactive: 0.061
- scaled lipid accumulation score [5]: inactive: ≤ 0
- scaled lipid accumulation score [1]: inactive: 0.043
- scaled lipid accumulation score [2]: inactive: ≤ 0

SMILES: CS(=O)(=O)O.Cc1ccc(NC(=O)c2ccc(CN3CCN(C)CC3)cc2)cc1Nc1nccc(-c2cccnc2)n1
- scaled lipid accumulation score [2]: active: 1.08

SMILES: COC(=O)C(Cc1ccc(OCCn2c(=O)sc3cc(C(=O)c4ccccc4)ccc32)cc1)C(=O)OC
- scaled lipid accumulation score [2]: inactive: ≤ 0

SMILES: O=C1CCC[C@@H]2[C@H]3CCC[N+]4([O-])CCC[C@@H](CN12)[C@@H]34 (stereo partly specified) [Oxymatrine]
- scaled lipid accumulation score [1]: inactive: ≤ 0
- scaled lipid accumulation score [2]: inactive: 0.019

SMILES: CC(=O)CCCCn1cnc2c1c(=O)n(C)c(=O)n2C
- scaled lipid accumulation score [2]: inactive: ≤ 0

SMILES: CCCCC/C=C\C/C=C\CCCCCCCCCC(=O)O [Eicosadienoic acid (20:2 n-6)]
- scaled lipid accumulation score [6]: inactive: 0.016

SMILES: CC(C)n1c(/C=C/C(O)CC(O)CC(=O)O)c(-c2ccc(F)cc2)c2ccccc21 (stereo unspecified) [fluvastatin]
- scaled lipid accumulation score [2]: inactive: 0.549

SMILES: CC(C)n1c(/C=C/C(O)CC(O)CC(=O)O)c(-c2ccc(F)cc2)c2ccccc21 (stereo unspecified) [Fluvastatin Sodium]
- scaled lipid accumulation score [1]: inactive: 0.188
- scaled lipid accumulation score [2]: inactive: 0.219

SMILES: CC(C)n1c(/C=C/C(O)CC(O)CC(=O)O)c(-c2ccc(F)cc2)c2ccccc21 (stereo unspecified) [Fluvastatin sodium salt]
- scaled lipid accumulation score: inactive: 0.403

SMILES: CS(=O)(=O)O.N=C(N)SCCc1ccc(OCc2ccc([N+](=O)[O-])cc2)cc1 [KB-R7943 mesylate]
- scaled lipid accumulation score [2]: active: 0.99

SMILES: O=c1ccn([C@@H]2O[C@H](CO)[C@@H](O)[C@H]2O)c(=O)[nH]1 [Uridine]
- scaled lipid accumulation score [1]: inactive: ≤ 0
- scaled lipid accumulation score [2]: inactive: ≤ 0

SMILES: CCCCCC(O)c1cccc(OCc2ccc3ccccc3n2)c1 (stereo unspecified)
- scaled lipid accumulation score [6]: inactive: ≤ 0 and inactive: 0.006

SMILES: COc1ccc2[nH]c(-c3ccccc3)c(CCNC(C)=O)c2c1 [2-Phenylmelatonin]
- scaled lipid accumulation score [2]: inactive: 0.014

SMILES: CC(C)(C)c1ccc(C(=O)CCCN2CCC(OC(c3ccccc3)c3ccccc3)CC2)cc1 [Ebastine]
- scaled lipid accumulation score [2]: inactive: ≤ -0.07

SMILES: CCCCNc1cc(C(=O)O)cc(S(N)(=O)=O)c1Oc1ccccc1 [Bumetanide]
- scaled lipid accumulation score: inactive: ≤ 0
- scaled lipid accumulation score [1]: inactive: ≤ 0
- scaled lipid accumulation score [2]: inactive: ≤ 0 and inactive: 0.26 and inactive: 0.178

SMILES: Fc1ccc2[nH]c(CN3CCN(c4ccccn4)CC3)cc2c1
- scaled lipid accumulation score [2]: inactive: ≤ 0

SMILES: CNC(=O)c1c(I)c(C(=O)NCC(=O)Nc2c(I)c(C(=O)O)c(I)c(C(=O)NCCO)c2I)c(I)c(N(C)C(C)=O)c1I [Ioxaglic acid]
- scaled lipid accumulation score: inactive: 0.014

SMILES: C[C@H](Cn1cnc2c(N)ncnc21)OCP(=O)(O)O
- scaled lipid accumulation score [2]: inactive: ≤ 0

SMILES: O=c1ncc(F)c[nH]1 [5-fluoro-2-pyrimidone]
- scaled lipid accumulation score [2]: inactive: ≤ 0

SMILES: CC1(C)[C@H]2CC[C@@]1(C)C(=O)C2 [1r-camphor]
- scaled lipid accumulation score [2]: inactive: ≤ 0

SMILES: CC(=O)Oc1ccccc1C(=O)Oc1ccccc1C(=O)O [Acetylsalicylsalicylic acid]
- scaled lipid accumulation score: inactive: ≤ 0

SMILES: O=C1NCCc2[nH]c(-c3ccnc(-c4cnc5ccccc5c4)c3)cc21 [MK-2 Inhibitor III]
- scaled lipid accumulation score [1]: inactive: ≤ 0

SMILES: CNC[C@H](O)[C@@H](O)[C@H](O)[C@H](O)CO [Meglumine]
- scaled lipid accumulation score: inactive: ≤ 0
- scaled lipid accumulation score [1]: inactive: ≤ 0
- scaled lipid accumulation score [2]: inactive: ≤ 0

SMILES: Nc1ccc(S(=O)(=O)Nc2cnc3ccccc3n2)cc1 [Sulfaquinoxaline sodium]
- scaled lipid accumulation score (library stock concentration: 6.2 mM): inactive: 0.015

SMILES: Nc1ccc(S(=O)(=O)Nc2cnc3ccccc3n2)cc1 [Sulfaquinoxaline sodium salt]
- scaled lipid accumulation score: inactive: ≤ 0

SMILES: NCCCC(O)(P(=O)(O)O)P(=O)(O)O [Alendronate sodium]
- scaled lipid accumulation score (library stock concentration: 6.1 mM): inactive: ≤ 0

SMILES: NCCCC(O)(P(=O)(O)O)P(=O)(O)O [Alendronate]
- scaled lipid accumulation score (library stock concentration: 8.1 mM): inactive: 0.031

SMILES: N.N.O=C([O-])C[O-].[Pt+2] [Nedaplatin]
- scaled lipid accumulation score (library stock concentration: 6.6 mM): inactive: 0.028

SMILES: CC/C=C\C/C=C\C/C=C\C/C=C\CCCCCCC(=O)OCC [.omega.-3 Arachidonic Acid ethyl ester]
- scaled lipid accumulation score [6]: inactive: ≤ 0

SMILES: COC(=O)N[C@H](C(=O)N[C@@H](Cc1ccccc1)[C@@H](O)CN(Cc1ccc(-c2ccccn2)cc1)NC(=O)[C@@H](NC(=O)OC)C(C)(C)C)C(C)(C)C [Atazanavir Sulfate]
- scaled lipid accumulation score [1]: inactive: ≤ 0
- scaled lipid accumulation score [2]: inactive: ≤ 0

SMILES: COC(=O)N[C@H](C(=O)N[C@@H](Cc1ccccc1)[C@@H](O)CN(Cc1ccc(-c2ccccn2)cc1)NC(=O)[C@@H](NC(=O)OC)C(C)(C)C)C(C)(C)C [Atazanavir]
- scaled lipid accumulation score (library stock concentration: 2.8 mM): inactive: 0.048

SMILES: COC(=O)Nc1ccc(-c2nc(N3CCOCC3)c3cnn(C4CCN(C(=O)OC)CC4)c3n2)cc1
- scaled lipid accumulation score [1]: inactive: ≤ 0
- scaled lipid accumulation score [2]: inactive: ≤ 0

SMILES: CCCCCCCCCC[Si](C)(C)CCC(=O)NC(Cc1ccc(C)cc1)c1ccccc1 (stereo unspecified) [Sandoz 58-035]
- scaled lipid accumulation score [2]: inactive: ≤ 0

SMILES: CCCCCCCCCCCC(=O)CC(=O)N[C@H]1CCOC1=O [N-3-oxo-tetradecanoyl-L-Homoserine lactone]
- scaled lipid accumulation score [6]: inactive: ≤ 0

SMILES: CNC(=O)c1c(F)cccc1Nc1nc(Nc2cc3c(cc2OC)CCN3C(=O)CN(C)C)nc2[nH]ccc12
- scaled lipid accumulation score [1]: active: 0.98

SMILES: OC(CC1c2ccccc2-c2cncn21)C1CCCCC1 (stereo unspecified)
- scaled lipid accumulation score [1]: inactive: ≤ -0.009
- scaled lipid accumulation score [2]: inactive: 0.209

SMILES: COc1ccc(C[C@H](N)C(=O)N[C@H]2[C@@H](O)[C@H](n3cnc4c(N(C)C)ncnc43)O[C@@H]2CO)cc1 [Puromycin dihydrochloride]
- scaled lipid accumulation score: inactive: 0.211

SMILES: COc1ccc(C[C@H](N)C(=O)N[C@H]2[C@@H](O)[C@H](n3cnc4c(N(C)C)ncnc43)O[C@@H]2CO)cc1
- scaled lipid accumulation score (library stock concentration: 9.4 mM): inactive: 0.412

SMILES: COc1ccc(C[C@H](N)C(=O)N[C@H]2[C@@H](O)[C@H](n3cnc4c(N(C)C)ncnc43)O[C@@H]2CO)cc1 [Puromycin 2HCl]
- scaled lipid accumulation score [1]: inactive: 0.16
- scaled lipid accumulation score [2]: inactive: 0.281

SMILES: COc1ccc(C[C@H](N)C(=O)N[C@H]2[C@@H](O)[C@H](n3cnc4c(N(C)C)ncnc43)O[C@@H]2CO)cc1 [Puromycin hydrochloride]
- scaled lipid accumulation score [2]: inactive: 0.352

SMILES: CCCCC/C=C/CCC(=O)N[C@H]1[C@H](Oc2c3cc4cc2Oc2ccc(cc2Cl)[C@@H](O[C@@H]2O[C@H](CO)[C@@H](O)[C@H](O)[C@H]2NC(C)=O)[C@@H]2NC(=O)[C@H](NC(=O)[C@@H]4NC(=O)[C@H]4NC(=O)C(Cc5ccc(c(Cl)c5)O3)NC(=O)[C@H](N)c3ccc(O)c(c3)Oc3cc(O)cc4c3)c3ccc(O)c(c3)-c3c(OC4O[C@H](CO)[C@@H](O)[C@H](O)[C@@H]4O)cc(O)cc3[C@@H](C(=O)O)NC2=O)O[C@H](CO)[C@@H](O)[C@@H]1O (stereo partly specified) [Teicoplanin [a(2-1) shown]]
- scaled lipid accumulation score (library stock concentration: 1.1 mM): inactive: ≤ 0

SMILES: [O-][n+]1cccc(CO)c1
- scaled lipid accumulation score [2]: inactive: ≤ 0

SMILES: COCc1nc2c([nH]1)c(=O)n(C)c(=O)n2CC(C)C [8-methoxymethyl-IBMX]
- scaled lipid accumulation score (library stock concentration: 18.8 mM): inactive: 0.036

SMILES: COCc1nc2c([nH]1)c(=O)n(C)c(=O)n2CC(C)C [8-Methoxymethyl-3-isobutyl-1-methylxanthine]
- scaled lipid accumulation score [2]: inactive: 0.155

SMILES: NC(=O)OCC(COC(N)=O)c1ccccc1 [Felbamate]
- scaled lipid accumulation score [1]: inactive: ≤ 0
- scaled lipid accumulation score [2]: inactive: ≤ 0 and inactive: 0.1

SMILES: CCC[S+]([O-])c1ccc2[nH]c(NC(=O)OC)nc2c1 (stereo unspecified) [Ricobendazole]
- scaled lipid accumulation score (library stock concentration: 7.1 mM): inactive: ≤ 0

SMILES: CCC[S+]([O-])c1ccc2[nH]c(NC(=O)OC)nc2c1 (stereo unspecified) [Albendazole Oxide]
- scaled lipid accumulation score [1]: inactive: ≤ 0
- scaled lipid accumulation score [2]: inactive: ≤ 0

SMILES: C[C@H]1NC(=O)NC1=O [Methylhydantoin-5-(D)]
- scaled lipid accumulation score: inactive: ≤ 0

SMILES: Clc1ccc2c(c1)C(N1CCNCC1)=Nc1ccccc1O2 [Amoxapine]
- scaled lipid accumulation score: active: 0.863

SMILES: Cc1ccnc(NS(=O)(=O)c2ccc(N)cc2)n1 [Sulfamerazine]
- scaled lipid accumulation score: inactive: ≤ 0
- scaled lipid accumulation score [1]: inactive: ≤ 0
- scaled lipid accumulation score (library stock concentration: 7.6 mM): inactive: ≤ 0
- scaled lipid accumulation score [2]: inactive: ≤ -0.001 and inactive: ≤ 0

SMILES: N=C(N)NCc1cccc(I)c1 [Iobenguane sulfate]
- scaled lipid accumulation score: inactive: ≤ 0

SMILES: CCCCS(=N)(=O)CCC(N)C(=O)O (racemic) [DL-Buthionine-[S,R]-sulfoximine]
- scaled lipid accumulation score [2]: inactive: ≤ 0

SMILES: Cl.N#CC1=C(N)NC(=C2C(=O)C=CC=C2OCC2CC2)C=C1C1CCNCC1
- scaled lipid accumulation score [2]: active: 1.09

SMILES: CN(C)CCOc1ccc(-c2nc(-c3ccncc3)c(-c3ccc4c(c3)CC/C4=N\O)[nH]2)cc1
- scaled lipid accumulation score [3]: inactive: 0.074
- scaled lipid accumulation score [4]: inactive: 0.325 and inactive: 0.619
- scaled lipid accumulation score [5]: inactive: 0.7 and inactive: 0.684
- scaled lipid accumulation score [2]: inactive: 0.476 and inactive: 0.423 and inactive: 0.307

SMILES: CN(C)CCCSC(=N)N [Dimaprit dihydrochloride]
- scaled lipid accumulation score: inactive: ≤ 0
- scaled lipid accumulation score [2]: inactive: ≤ 0

SMILES: Cl.O[C@H](CNC[C@@H](O)[C@H]1CCc2cc(F)ccc2O1)[C@@H]1CCc2cc(F)ccc2O1 [Nebivolol hydrochloride]
- scaled lipid accumulation score [2]: active: 0.861
